# The supplement of paper PMC10600219
# Counter-ions that a name gives are not always drawn. The full ranking holds about 2,800 compounds; the median of “cell viability relative to vehicle” is about 1.1, and the lowest 2% start at about 0.19. Some of the results follow.
# System: NCI-H2228 parental
# Test: cell viability relative to vehicle (fraction of vehicle); NCI-H2228 is an ALK-positive lung cancer line and DTP means drug-tolerant persister; higher = less growth inhibition
# Details: 100 nM; treatment time 6 days
# Summary of the method: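 Drug-tolerant persister NCI-H2228 cells, produced by 13 days in 1000 nM of a targeted drug, and their parental counterparts were seeded into 384-well plates and, the following day, given the 3114-agent TargetMol anti-cancer compound library at 100 nM or DMSO vehicle. After 6 days, the CellTiter-Glo 3D Cell Viability Assay was used to read ATP. Each entry reports viability compared with vehicle-treated cells.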
row,Compound,cell viability
1,C[C@H]1COc2c(C3(N)CC3)c(F)cc3c(=O)c(C(=O)O)cn1c23 [Pazufloxacin Mesylate],1.04
2,CC(C)(C)C(=O)Oc1ccc(S(=O)(=O)Nc2ccccc2C(=O)NCC(=O)O)cc1 [Sivelestat],1.08
3,CSc1ccc2c(c1)C(N1CCN(C)CC1)Cc1ccccc1S2 (stereo not given) [Methiothepin mesylate],0.981
4,Cc1c(C)c2c(c(C)c1O)CCC(C)(COc1ccc(CC3SC(=O)NC3=O)cc1)O2 (stereo not given) [Troglitazone],0.981
5,COc1ccc(-c2cc(=O)c3c(O)cc(O)c(-c4cc(-c5cc(=O)c6c(O)cc(O)cc6o5)ccc4OC)c3o2)cc1,0.908
6,C[N+]1(C)[C@@H]2CC[C@H]1C[C@@H](OC(=O)C(O)c1ccccc1)C2 (stereo not given in full) [Homatropine Methylbromide],1.08
7,O=S(=O)(c1ccc(Cl)cc1)N1CCN(c2ccnc3cc(Cl)ccc23)CC1,1.08
8,CC(C)N(C[C@H]1O[C@@H](n2cnc3c(N)ncnc32)[C@H](O)[C@@H]1O)[C@H]1C[C@@H](CCc2nc3cc(C(C)(C)C)ccc3[nH]2)C1 [Pinometostat],1.14
9,C[C@H](NP(=O)(OC[C@H]1O[C@@H](n2ccc(N)nc2=O)C(F)(F)[C@@H]1O)Oc1ccccc1)C(=O)OCc1ccccc1 (stereo not given in full) [Acelarin],0.135
10,C[C@]12CC[C@H](O)CC1=CC[C@@H]1[C@@H]2CC[C@]2(C)C(n3cnc4ccccc43)=CC[C@@H]12 [Galeterone],0.925
11,CC1=C(/C=C/C(C)=C/C=C/C(C)=C/C(=O)O)C(C)(C)CCC1 [Tretinoin],0.614
12,CC(C)=CCC[C@](C)(O[C@@H]1O[C@H](CO)[C@@H](O)[C@H](O)[C@H]1O)[C@H]1CC[C@]2(C)[C@@H]1[C@H](O)C[C@@H]1[C@@]3(C)CC[C@H](O)C(C)(C)[C@@H]3[C@@H](O[C@@H]3O[C@H](CO)[C@@H](O)[C@H](O)[C@H]3O[C@@H]3O[C@@H](C)[C@H](O)[C@@H](O)[C@H]3O)C[C@]12C [Ginsenoside Re],1.03
13,CC(C)=CC[C@@H](O)C1=CC(=O)c2c(O)ccc(O)c2C1=O (racemic) [(±)-Shikonin],1.14
14,Nc1nc(NC2CC2)cc(-c2cccc(Cl)c2Cl)n1,1.06
15,CC(=O)Oc1ccccc1C(=O)O [Aspirin],1.16
16,CNS(=O)(=O)CCc1ccc2[nH]cc(C3CCN(C)CC3)c2c1 [Naratriptan],1.11
17,COc1ccc2ccc(=O)oc2c1CC=C(C)C [Osthole],1
18,O=C(Nc1nc2cccc(-c3ccc(CN4CCS(=O)(=O)CC4)cc3)n2n1)C1CC1 [Filgotinib],1.05
19,CSCC1CN(/N=C/c2ccc([N+](=O)[O-])o2)C(=O)O1 (stereo not given) [Nifuratel],1.23
20,N=C(N)NS(=O)(=O)c1ccc(N)cc1 [Sulfaguanidine],1.14
21,Cc1cc(Nc2ncc3c(n2)N(C)C(=O)N(c2cc(NC(=O)c4cccc(C(F)(F)F)c4)ccc2C)C3)n(C)n1 [Pluripotin],0.615
22,O=C(N1CCCC1)n1ccnn1,1.18
23,Cc1ncc(CO)c(CO)c1O [Pyridoxine],1.12
24,Cc1ncc(CO)c(CO)c1O [Metadoxine],1
25,O=C(O)c1ccc(-c2c[nH]c3ncc(-c4ccccc4)cc23)cc1C1CCCC1,1.05

row,Compound,cell viability
1,C=CC(=O)Nc1cc(Nc2nccc(-c3c[nH]c4ccccc34)n2)c(OC)cc1N(C)CCN(C)C,0.638
2,O=[N+]([O-])c1cncn1CCN1CCOCC1 [Nimorazole],0.938
3,CC(C)(NS(=O)(=O)c1ccc2c(Cl)cnc(N=C(N)N)c2c1)C(=O)O,1.08
4,CCc1c(C)[nH]c2c1C(=O)C(CN1CCOCC1)CC2 (stereo not given) [Molindone hydrochloride],1.11
5,Cc1ccc(NCCCc2ccccc2)c(N)c1,1.06
6,C=CC(=O)Nc1cc(Nc2nccc(-c3cn(C)c4ccccc34)n2)c(OC)cc1N(C)CCN(C)C [Osimertinib mesylate],1.06
7,C=CC(=O)Nc1cc(Nc2nccc(-c3cn(C)c4ccccc34)n2)c(OC)cc1N(C)CCN(C)C [Osimertinib],1.03
8,C#Cc1cccc(Nc2ncnc3cc4c(cc23)OCCOCCOCCO4)c1 [Icotinib],1.09
9,N[C@@H](CCC(=O)N[C@@H](CS)C(=O)NCC(=O)O)C(=O)O [Glutathione],1.17
10,c1ccc(-c2[nH]ncc2-c2ccnc3ccccc23)nc1,1.05
11,CCN(CC)CC(O)CNc1ccc(NCC2CO2)c2c1C(=O)c1ccccc1C2=O (stereo not given),0.872
12,C[C@@H]1CC[C@@]2(NC1)O[C@H]1C[C@H]3[C@@H]4CC=C5C[C@@H](O[C@@H]6O[C@H](CO)[C@H](O)[C@H](O[C@@H]7O[C@H](CO)[C@@H](O)[C@H](O)[C@H]7O)[C@H]6O[C@@H]6O[C@@H](C)[C@H](O)[C@@H](O)[C@H]6O)CC[C@]5(C)[C@H]4CC[C@]3(C)[C@H]1[C@@H]2C [Solasonine],1.1
13,CCCSc1nc(N[C@@H]2C[C@H]2c2ccc(F)c(F)c2)c2nnn([C@@H]3C[C@H](OCCO)[C@@H](O)[C@H]3O)c2n1 [Ticagrelor],1.11
14,C=CC(=O)Nc1cccc(Nc2nc(Nc3ccc(Oc4ccnc(C(=O)NC)c4)cc3)ncc2F)c1,1.14
15,C=C1C[C@@]2(O)O[C@@]3(C[C@H]2C(C)C)[C@@H](C)CC[C@@H]13 [Curcumol],1.09
16,O=C(O)COCCN1CCN(C(c2ccccc2)c2ccc(Cl)cc2)CC1 (stereo not given) [Cetirizine dihydrochloride],1.2
17,CCCCNc1ncc2c(-c3ccc(CN4CCN(C)CC4)cc3)cn(C3CCC(O)CC3)c2n1 (stereo not given),0.92
18,N[C@H]1C[C@@H]1c1ccc(-c2cccc(O)c2)cc1,0.967
19,CC(C)c1cc(-c2n[nH]c(=O)n2-c2ccc3c(ccn3C)c2)c(O)cc1O [Ganetespib],0.118
20,CC(=O)O[C@]1(C(C)=O)CC[C@H]2[C@@H]3C=C(Cl)C4=CC(=O)[C@@H]5C[C@@H]5[C@]4(C)[C@H]3CC[C@@]21C [Cyproterone acetate],0.855
21,O=C(Nc1ccc(C(O)(C(F)(F)F)C(F)(F)F)cc1)c1ccc(C(F)(F)F)cc1,1.07
22,Clc1ccc(CO/N=C(\Cn2ccnc2)c2ccc(Cl)cc2Cl)c(Cl)c1 [Oxiconazole nitrate],0.951
23,COc1ccc(-c2ccc3ncc4c(c3c2)n(-c2ccc(N3CCNCC3)c(C(F)(F)F)c2)c(=O)n4C)cn1,0.172
24,Clc1ccc(Cn2c(CN3CCCC3)nc3ccccc32)cc1 [Clemizole],1.06
25,COc1cc2nc(N(C)CCCNC(=O)C3CCCO3)nc(N)c2cc1OC (stereo not given) [Alfuzosin hydrochloride],1.12

row,Compound,cell viability
1,COc1c2c(cc3c1-c1c(cc4c(c1OC)OCO4)C[C@H](C)[C@H](C)C3)OCO2 [Schisandrin C],0.951
2,CC1(C)CC(=O)c2c(C(F)(F)F)nn(-c3ccc(C(N)=O)c(N[C@H]4CC[C@H](O)CC4)c3)c2C1,0.209
3,O=C(O)/C=C/c1ccc(O)c(O)c1 [Caffeic Acid],1
4,CCCCc1nc2cc(/C=C/C(=O)NO)ccc2n1CCN(CC)CC [Pracinostat],0.872
5,CC(=O)O[C@]1(C(C)=O)CC[C@H]2[C@@H]3CCC4=CC(=O)CCC4=C3[C@@H](c3ccc(N(C)C)cc3)C[C@@]21C [Ulipristal acetate],1.25
6,N#CSc1cc(SC#N)c(N)nc1N,0.779
7,CC(=O)Nc1nc2c(Oc3cc(-c4ccc(C(F)(F)F)cc4)ncn3)cccc2s1,1.1
8,N[C@@H](Cc1c[nH]c2ccc(O)cc12)C(=O)O [L-5-Hydroxytryptophan],1
9,CC#CC(=O)N1CCC[C@H]1c1nc(-c2ccc(C(=O)Nc3ccccn3)cc2)c2c(N)nccn12 [Acalabrutinib],1.14
10,CN1C[C@@H]2C[C@H]1CN2c1cc2c(cc1F)c(=O)c(C(=O)O)cn2C1CC1 [Danofloxacin mesylate],1.11
11,CC(C)n1nc(-c2ccc3oc(N)nc3c2)c2c(N)ncnc21,0.222
12,N=C(N)Nc1ccc(C(=O)Oc2ccc3cc(C(=N)N)ccc3c2)cc1 [Nafamostat mesylate],1.08
13,Nc1ccc(/C=C/C(=O)NCc2cc3cc(-c4ccc(C(=O)N5CCC(F)(F)CC5)cc4)cc(-c4ccc(F)cc4)c3o2)cn1,1.12
14,O=C(NO)c1cccc(C(=O)NCCc2ccccc2)c1,1.08
15,COc1ccc(CC(C)(C)NC[C@H](O)c2cc(O)cc3c2OCC(=O)N3)cc1 [Olodaterol],0.923
16,Nc1cccc2c1C(=O)N(C1CCC(=O)NC1=O)C2=O (stereo not given) [Pomalidomide],1.17
17,Oc1ccc(OC2CCCCO2)cc1 (stereo not given) [Deoxyarbutin],0.997
18,C=C1C[C@@]23CC[C@H]4[C@@](C)(CCC[C@@]4(C)C(=O)O)[C@@H]2CC[C@]1(O)C3 [Steviol],0.857
19,O=C(NCC(=O)N1CC[C@H](N[C@H]2CC[C@@](O)(c3ccc(-c4ncccn4)cn3)CC2)C1)c1cccc(C(F)(F)F)c1,1.16
20,CC1(C)CCC(C)(C)c2cc(NC(=O)c3ccc(C(=O)O)cc3)ccc21 [Tamibarotene],0.582
21,COc1cc(C(=O)O)ccc1NC(=O)[C@@H]1N[C@@H](CC(C)(C)C)[C@](C#N)(c2ccc(Cl)cc2F)[C@H]1c1cccc(Cl)c1F [Idasanutlin],1.02
22,O=C(O)C(O)Cc1ccc(O)c(O)c1 (stereo not given) [Sodium Danshensu],0.949
23,N=C(N)NC(=O)Cc1c(Cl)cccc1Cl [Guanfacine hydrochloride],1.15
24,O=C1Nc2ccccc2/C1=C1/Nc2ccccc2C1=O [Indirubin],0.995
25,COc1ccc(S(=O)(=O)Nc2cc(-c3c(O)ccc4ccccc34)c(O)c3ccccc23)cc1,0.987
